Test [1] relates to RAW-Dual. Kind of test: NF-kB SEAP reporter activity, fold change vs agonist alone; cytotoxicity flag (confluency mask): not cytotoxic; higher = enhanced NF-kB activity. In outline:
(§1)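 Library stock was pin-tooled at 50 nL into 384-well plates of RAW-Dual macrophages (50,000 cells/well, DMEM), followed 1 h later by a PRR agonist, and the cells were kept at 37 °C, 5% CO2. Supernatant collected after 20 hours was read for IRF by QuantiLuc luminescence and for NF-κB by QuantiBlue absorbance at 620 nm. Reporter activity is fold change over agonist-alone wells, and a well counted as cytotoxic when its IncuCyte confluency was below 70% of agonist controls in both mask sets.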

The subject of test [2] is RAW-Dual. Briefly: NF-kB SEAP reporter activity, fold change vs agonist alone; higher = enhanced NF-kB activity. The procedure, abridged: as §1
For test [3], the system named is RAW-Dual. Briefly: NF-kB SEAP reporter activity, fold change vs agonist alone; cytotoxicity flag (confluency mask): cytotoxic (confluency <70% of control); higher = enhanced NF-kB activity. The procedure, abridged:
as §1

Setting [4] is: agonist: ODN 1826 (TLR9) 0.5 ug/mL.
[5] abbreviates: agonist: Pam2CSK4 (TLR2/6) 0.1 ug/mL.
[6] abbreviates: agonist: Pam3CSK4 (TLR2/1) 0.1 ug/mL.
Where [7] appears, read: library stock concentration (final ~1000-fold dilution): 10 mM, cytotoxicity flag (confluency mask): not cytotoxic, agonist: Imiquimod (TLR7) […].
[8] abbreviates: library stock concentration (final ~1000-fold dilution): 10 mM, cytotoxicity flag (confluency mask): not cytotoxic, agonist: MPLA (TLR4) […].
The mark [9] stands for this setting: library stock concentration (final ~1000-fold dilution): 10 mM, cytotoxicity flag (confluency mask): cytotoxic (confluency <70% of control), agonist: Imiquimod (TLR7) […].
Where [10] appears, read: library stock concentration (final ~1000-fold dilution): 10 mM, cytotoxicity flag (confluency mask): cytotoxic (confluency <70% of control), agonist: MPLA (TLR4) […].

Over roughly 2,900 compounds, “NF-kB SEAP reporter activity, fold change vs agonist alone” has its median near 0.99; the highest 2% begin near 2.6. Some of the results follow.

Regarding `CC(C)(CNC(=O)c1cccc(-c2noc(C(F)(F)F)n2)c1)c1coc(-c2ccccc2)n1` (library stock concentration (final ~1000-fold dilution): 10 mM), the “NF-kB SEAP reporter activity” value in test [1] (agonist: LPS (TLR4) 0.1 ug/mL) was determined as 1.03; in test [1] (setting [4]) it was 1.03; in test [1] (setting [5]), 0.625; in test [1] (setting [6]) it was 0.745.
Regarding `CC(C)(CNC(=O)c1cccc(-c2noc(C(F)(F)F)n2)c1)c1coc(-c2ccccc2)n1`, the entries for the “NF-kB SEAP reporter activity” value in test [2] (setting [7]) and in test [2] (setting [8]) were 0.959 and 1.09, respectively.
Taken in the same sequence, the figures for `CCNC(=O)Nc1ccc(-c2nc(N3CCOCC3C)c3c(n2)C(C)(C)S(=O)(=O)C3)cc1` (centres undefined) were 0.921 and 1.46.
`CCNC(=O)Nc1ccc(-c2nc(N3CCOCC3C)c3c(n2)C(C)(C)S(=O)(=O)C3)cc1` (centres undefined) (library stock concentration (final ~1000-fold dilution): 10 mM): the “NF-kB SEAP reporter activity” value in test [1] (agonist: LPS (TLR4) 0.1 ug/mL) was determined as 1.01; in test [1] (setting [4]), 0.686; in test [1] (setting [5]), 0.367; in test [1] (setting [6]), 0.583.
Consider `COc1cc(-c2cn(C)c(=O)c3cnccc23)c(OC)cc1CN(C)C` (library stock concentration (final ~1000-fold dilution): 2 mM), for which the “NF-kB SEAP reporter activity” value in test [1] (agonist: LPS (TLR4) 0.1 ug/mL) turned out to be 0.897; in test [1] (setting [4]), 0.993; in test [1] (setting [5]), 1.07; in test [1] (setting [6]) it was 0.995.
For `COc1cc(-c2cn(C)c(=O)c3cnccc23)c(OC)cc1CN(C)C`, the “NF-kB SEAP reporter activity” value stood at 0.897 in test [2] (library stock concentration (final ~1000-fold dilution): 2 mM, cytotoxicity flag (confluency mask): not cytotoxic, agonist: Imiquimod (TLR7) […]) and 1.05 in test [2] (library stock concentration (final ~1000-fold dilution): 2 mM, cytotoxicity flag (confluency mask): not cytotoxic, agonist: MPLA (TLR4) […]).
On to `Cc1cc(C(=O)NOCCO)c(Nc2ccc(I)cc2F)n(C)c1=O` (library stock concentration (final ~1000-fold dilution): 10 mM), for which the “NF-kB SEAP reporter activity” value stood at 0.186 in test [1] (agonist: LPS (TLR4) 0.1 ug/mL), 0.28 in test [1] (setting [4]), 0.0869 in test [1] (setting [5]) and 0.189 in test [1] (setting [6]).
For `Cc1cc(C(=O)NOCCO)c(Nc2ccc(I)cc2F)n(C)c1=O`, the “NF-kB SEAP reporter activity” value in test [2] (setting [7]) was determined as 0.211; in test [2] (setting [8]) it was 0.206.
As to `Cc1nc(Nc2cnn(C3CCNCC3)c2)nc2c1N(C)C(=O)c1cc3ccccc3cc1N2C` (library stock concentration (final ~1000-fold dilution): 10 mM), the “NF-kB SEAP reporter activity” value was 3.03 in test [3] (agonist: LPS (TLR4) 0.1 ug/mL), 0.387 in test [3] (setting [4]), 1.11 in test [3] (setting [5]) and 2.25 in test [3] (setting [6]).
For `Cc1nc(Nc2cnn(C3CCNCC3)c2)nc2c1N(C)C(=O)c1cc3ccccc3cc1N2C`, the “NF-kB SEAP reporter activity” value in test [2] (setting [9]) amounted to 1.56; in test [2] (setting [10]) it was 2.88.
For the compound `NC(=O)c1cnc(NCCc2ccc(O)c(Cl)c2)nc1NCc1ccccc1` (library stock concentration (final ~1000-fold dilution): 10 mM), the “NF-kB SEAP reporter activity” value in test [3] (agonist: LPS (TLR4) 0.1 ug/mL) stood at 0.411; in test [3] (setting [4]) it was 0.171; in test [3] (setting [5]), 0.0838; in test [3] (setting [6]), 0.154.
With `NC(=O)c1cnc(NCCc2ccc(O)c(Cl)c2)nc1NCc1ccccc1`, the “NF-kB SEAP reporter activity” value in test [2] (setting [9]) is 0.144; in test [2] (setting [10]), 0.251.
Take `Oc1ncnc2[nH]ncc12` (library stock concentration (final ~1000-fold dilution): 10 mM): the “NF-kB SEAP reporter activity” value in test [1] (agonist: LPS (TLR4) 0.1 ug/mL) amounted to 1.21; in test [1] (setting [4]) it was 1.03; in test [1] (setting [5]), 1.1; in test [1] (setting [6]), 1.17.
With `Oc1ncnc2[nH]ncc12`, the “NF-kB SEAP reporter activity” value turned out to be 0.893 in test [2] (setting [7]) and 1.04 in test [2] (setting [8]).
Turning to `COc1ccccc1C(=O)Nc1cc2c(cc1N1CCCC1)n(C)c(=O)n2C` (library stock concentration (final ~1000-fold dilution): 10 mM), the “NF-kB SEAP reporter activity” value in test [1] (agonist: LPS (TLR4) 0.1 ug/mL) stood at 1.58; in test [1] (setting [4]), 1.36; in test [1] (setting [5]) it was 1.11; in test [1] (setting [6]), 1.05.
In the case of `COc1ccccc1C(=O)Nc1cc2c(cc1N1CCCC1)n(C)c(=O)n2C`, the “NF-kB SEAP reporter activity” value in test [2] (setting [7]) was determined as 1.04; in test [2] (setting [8]), 1.34.
As to `CC(NC(=Nc1cccc2ncccc12)NC#N)c1ccccc1` (centres undefined) (library stock concentration (final ~1000-fold dilution): 10 mM), the “NF-kB SEAP reporter activity” value in test [1] (agonist: LPS (TLR4) 0.1 ug/mL) is 1.34; in test [1] (setting [4]) it was 1.07; in test [1] (setting [5]) it was 1.13; in test [1] (setting [6]) it was 1.29.
As to `CC(NC(=Nc1cccc2ncccc12)NC#N)c1ccccc1` (centres undefined), the “NF-kB SEAP reporter activity” value in test [2] (setting [7]) was found to be 0.897; in test [2] (setting [8]), 1.12.

The values above are taken from the supplement of paper PMC10037445.
